Data reported in publication PMC12136788.
The other results are listed elsewhere or left out.

B1: chr4:75577918:75578020:-|3pUTR|ENSG00000138769|unk|total|mutant (ssRNA)
RNA: GGGAGUUCUACAGUCCGACGAUCGGUUGUUCCGGGAACCAGAAUUUGUGAGUUUUUUUUUUUUUUUUGCCUUAACUAAUUAACCGUGUGUUGCUUUUUUUCCAAAGCCAUUGACCCGAACUCCGCUGAAGAAUUUAACCCGAACAACAGAGGAUUGAGCAUCA
B2: chrX:48700291:48700392:+|CDS|ENSG00000101945|unk|total|mutant (ssRNA)
RNA: GGGAGUUCUACAGUCCGACGAUCGCUCCGUCGCUGGGAGCAGGAGCUCAAUGCCAAGCGCAGCCAUCUGGGACGCAUCACUGCCGAGAAUGAGGUGGACCUGGACGGCCCUCCGCGGGCCUUCGUGUACAUCAAUGAGUACCGCAACAGAGGAUUGAGCAUCA
B3: chr8:122973292:122973393:+|3pUTR|ENSG00000178764|msi1|total|mutant (ssRNA)
RNA: GGGAGUUCUACAGUCCGACGAUCAGAGAUGGUCUCUCCCCAGCCAUGGGCCACCCUUGCCAGUGACUCCAAGUGGAACUACUCCGCUCGCGUGUGCCUGGAGGGUGCGGGAAGUCCAGCGACUCUCAGACGCACCUCCCAGAGCAACAGAGGAUUGAGCAUCA
B4: ENSG00000070961:be:win_1101|CDS|ENSG00000070961|bound_else_gene|NA|bound_elsewhere_windowed (ssRNA)
RNA: GGGAGUUCUACAGUCCGACGAUCAAAACUGGCUGUUCAGAUUGGCAAAGCAGGUCUGUUGAUGUCUGCCAUCACAGUUAUCAUUCUAGUAUUAUAUUUUGUCAUUGACACCUUCUGGGUUCAGAAAAGACCAUGGCUUGCUGACAACAGAGGAUUGAGCAUCA
B5: ENSG00000051108:stop:overlap|stop_codon|ENSG00000051108|stop_codon|NA|stop_codon (ssRNA)
RNA: GGGAGUUCUACAGUCCGACGAUCAUGGGUGGCUUCAGCUUUCCUGGUUCCAGCAGAUAUAUGCACGACAGUACUACAUGCAAUAGAAGGCACUGAUCCUGAAACUGAAGACCCCAACCACCUCCCUCCAGACAGGGAUGUACUCAACAGAGGAUUGAGCAUCA
B6: ENSG00000168288:stop:overlap|stop_codon|ENSG00000168288|stop_codon|NA|stop_codon (ssRNA)
RNA: GGGAGUUCUACAGUCCGACGAUCGGAGUAUCUUCACUAAUGCAACACCAGACAGCCAUAUUAUGAAGAAAUUAAGUGGAAAUUAGCAGAAAUAUCCAUUCAUUUGCUGUACUAUUUGUAUGUAAUAUUUGGGUUGAUCUAUAACAACAGAGGAUUGAGCAUCA
B7: ENSG00000198589:be:win_9651|3pUTR|ENSG00000198589|bound_else_gene|NA|bound_elsewhere_windowed (ssRNA)
RNA: GGGAGUUCUACAGUCCGACGAUCCUUCAAGUGGUCCCUCUUUUUUUCCUACACACUCAGCUCUUCUCUAAAAGCAAGGAUUUGGAAUGAACAAUUCAGUUUGACAGAAAAAGCUGAAUAAAAUGGCAUCUGUAAUUGAAUUGUCAACAGAGGAUUGAGCAUCA
B8: chr20:31606305:31606406:+|3pUTR|ENSG00000125968|msi1|FALSE|unique (ssRNA)
RNA: GGGAGUUCUACAGUCCGACGAUCUGAGGCACUGGCGAGGAGAGGGCGCUCCUCUCUGCACACCUACUAGUCACCAGAGACUUUAGGGGGUGGGAUUCCACUCGUGUGUUUCUAUUUUUUGAAAAGCAGACAUUUUAAAAAAUGCAACAGAGGAUUGAGCAUCA
B9: chr17:55719626:55720665:-|three_prime_utr|ENSG00000166292|control|control|control (ssRNA)
RNA: GGGAGUUCUACAGUCCGACGAUCUGAAAAAUCAGCUUUCUAUUUACAUGAAACACUUUGGGGGUCAUGGGAGUGCACAGCAUUAGACAGUAUUUGGUUCACCCUGUAAAGUAGCCAAGAAAAGAUGAGAAAAAUCAAGAUAGGCAACAGAGGAUUGAGCAUCA
B10: ENSG00000198898:stop:overlap|stop_codon|ENSG00000198898|stop_codon|NA|stop_codon (ssRNA)
RNA: GGGAGUUCUACAGUCCGACGAUCCUCUGAGAGCUUACGUAAAAGAACAUUACCCGAAUGGAGUCUGCACUGUAAGUCAUCAGUAGCAGCUUUGUGUGUGUGUUUUGUGUAAAUGUGAGUCUUUAGCGUCUCUUAAAAUUUACACAACAGAGGAUUGAGCAUCA
B11: chr15:73560698:73560803:-|3pUTR|ENSG00000156642|msi1_unk|total|mutant (ssRNA)
RNA: GGGAGUUCUACAGUCCGACGAUCUUUUGGGCUUGAUGUGCUGUGAAUGUUGCUUUUUUUUUUCCUUUGUUAAAAUAUUUAAACCGAAGUGAAAAGGUCCUCUGAGGAUCAGAUCAUGCAUGCGCCAUUUUUUACUUAAUGCAGCAACAGAGGAUUGAGCAUCA
B12: chr9:104535772:104536723:-|CDS|ENSG00000204246|control|control|control (ssRNA)
RNA: GGGAGUUCUACAGUCCGACGAUCGACAAGCUCAUUUCUCUGUUUUAUGGGGUAGUGACACCCAUGCUGAAUCCUAUACUCUAUAGCUUGAGAAAUAAGGAUGUAAAAGCUGCUGUAAAAUAUUUGCUGAACAAAAAACCAAUUCAACAGAGGAUUGAGCAUCA
B13: chr5:149847740:149847841:+|3pUTR|ENSG00000155846|unk|FALSE|unique (ssRNA)
RNA: GGGAGUUCUACAGUCCGACGAUCAUUGAACAAAGCUGCUUCUGUCUGUGAGUUUCCAUGGUGUUGACGUUCCACUGCCACAUUAGUGUCCUCGCUUCCAACGGGUUGUCCCGGGUGCACCUCGAAGUGCCGGGUCCGUCACCCCAACAGAGGAUUGAGCAUCA
B14: chr1:113706032:113706133:-|CDS|ENSG00000116793|unk|FALSE|unique (ssRNA)
RNA: GGGAGUUCUACAGUCCGACGAUCCAAUGCCUAUCAGCAAGGAGUAGGUUAUCAGAUGCUGGGAAAUGUUGUCACUAUUGGAUUAGCAUUUUUUCCAUUCUUACAUCGACUUUUCCGUGAGAAGAGCCUUGACCAACUAAAGUCCAACAGAGGAUUGAGCAUCA

Each binder was assayed against MSI1 full-length (mouse, UniProt Q61474 1-362) (assay: nsRBNS (natural sequence RNA bind-n-seq); RBNS binding buffer (assumed for nsRBNS): 25 mM Tris pH 7.5, 150 mM KCl, 3 mM MgCl2, 0.01% Triton X-100, 500 ug/ml BSA, 20 U/ml SUPERase-In, 4 C; UNK is unkempt and MSI1 is Musashi-1; names of the RNAs are library labels; protein concentration not given here; high values mean tight binding).
Chain of UniProt Q61474 (Q61474 whole entry): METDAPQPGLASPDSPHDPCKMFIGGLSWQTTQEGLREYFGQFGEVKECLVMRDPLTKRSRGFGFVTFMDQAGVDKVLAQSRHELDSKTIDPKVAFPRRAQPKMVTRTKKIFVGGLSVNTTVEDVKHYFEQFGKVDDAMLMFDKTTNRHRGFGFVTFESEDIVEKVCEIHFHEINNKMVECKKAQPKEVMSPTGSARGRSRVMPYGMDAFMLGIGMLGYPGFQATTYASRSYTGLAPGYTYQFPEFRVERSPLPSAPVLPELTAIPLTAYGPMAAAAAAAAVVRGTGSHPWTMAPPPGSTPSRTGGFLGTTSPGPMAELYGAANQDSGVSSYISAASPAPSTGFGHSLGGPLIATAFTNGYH

Binder	binding signal [enrichment R]
B1	1.9
B2	0.399
B3	0.385
B4	4
B5	0.502
B6	1.08
B7	0.318
B8	0.414
B9	1.7
B10	0.84
B11	0.447
B12	0.458
B13	0.593
B14	0.304
